Assay results reported in article PMC6919601, “Identification of Plasmodium dipeptidyl aminopeptidase allosteric inhibitors by high throughput screening” (PLoS ONE, 2019).
The whole screen tested about 110,000 compounds, of which about 230 (0.21%) showed an effect of 50% or more. This is one part of the list.

Target: DPAP1 (Plasmodium falciparum, UniProt Q8IIJ9)
Experiment: primary screen, percent inhibition; read by cleavage of a fluorogenic dipeptide substrate; higher = more effect of the substance
Design: species or system P. falciparum D10 trophozoite lysates; single well
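Note: 30 min substrate incubation versus DMSO and 10 µM JCP410 controls.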

Chain of DPAP1 (Q8IIJ9 whole entry, looked up): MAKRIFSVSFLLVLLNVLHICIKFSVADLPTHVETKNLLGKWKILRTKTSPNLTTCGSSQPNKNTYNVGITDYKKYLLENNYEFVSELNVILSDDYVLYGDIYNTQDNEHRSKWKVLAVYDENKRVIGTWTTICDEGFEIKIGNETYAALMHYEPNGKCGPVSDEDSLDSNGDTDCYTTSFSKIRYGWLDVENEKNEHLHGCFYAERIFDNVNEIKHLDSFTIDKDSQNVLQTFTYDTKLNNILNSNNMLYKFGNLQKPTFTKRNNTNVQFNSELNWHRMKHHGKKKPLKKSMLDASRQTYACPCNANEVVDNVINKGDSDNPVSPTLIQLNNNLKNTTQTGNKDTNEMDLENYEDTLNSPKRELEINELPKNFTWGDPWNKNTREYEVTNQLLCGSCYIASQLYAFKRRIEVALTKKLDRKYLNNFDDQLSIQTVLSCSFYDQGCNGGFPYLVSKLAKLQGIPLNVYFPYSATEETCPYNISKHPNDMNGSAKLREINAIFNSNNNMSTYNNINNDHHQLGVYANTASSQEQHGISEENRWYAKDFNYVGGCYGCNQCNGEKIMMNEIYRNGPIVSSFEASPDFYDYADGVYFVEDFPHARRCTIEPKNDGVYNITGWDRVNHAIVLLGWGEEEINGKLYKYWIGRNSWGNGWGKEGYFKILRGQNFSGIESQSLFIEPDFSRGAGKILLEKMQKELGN

SMILES	% Inhibition @ 10 uM [%]
CCc1ccc2oc(C(=O)NCc3ccc(OC)cc3)cc(=O)c2c1	-5.08
COc1ccccc1N1CCN(C(=O)CN2C(=O)c3ccccc3S2(=O)=O)CC1	-3.04
COc1cc(C(=O)N2CCN(Cc3cccc(Oc4ccccc4)c3)CC2)cc(OC)c1OC	5.41
COc1cccc(N(CC(=O)Nc2ccc(C)cc2C)S(=O)(=O)c2ccccc2)c1	0.324
O=C(CCc1nnc2n(Cc3ccccc3Cl)c(=O)c3ccccc3n12)NC1CCCCC1	2.6
C=CCc1cccc2cc(C(=O)N3CCN(C)CC3)c(=O)oc12	-4.98
CN(C)S(=O)(=O)c1ccc(N2CCN(CCO)CC2)nc1	-1.51
COc1cc2c(cc1OC)CN(C(=O)COc1ccc(Cl)cc1Cl)CC2	-2.85
COc1ccccc1CN1C(=O)c2ccccc2C1C(=O)NC1CCC(C)CC1 (centres unmarked)	5.89
COc1ccc(-c2noc(N(C)CC(=O)Nc3cccc(C)n3)n2)cc1	2.76
O=c1c(CN2CCN(c3ccccc3F)CC2)coc2ccccc12	-4.61
COc1ccc(OC)c(NC(=O)c2cccs2)c1	2.22
Cc1ccsc1CCNC(=O)CCc1c(C)nc2ncnn2c1O	-1.3
CCn1cc(Cl)c(C(=O)NCc2cc3cc(Cl)ccc3[nH]2)n1	-0.68
CCN(CC)c1ccc2nnc(CCC(=O)NCc3ccco3)n2n1	-5.85
Clc1ccccc1Cn1nnc2c(N3CCCC3)ncnc21	-2.19
Cc1ccc(S(=O)(=O)N(CC(=O)N2CCN(C)CC2)c2ccc(C)c(C)c2)cc1	-5.57
COc1cccc2nc3ccccc3c(O)c12	-2.15
COc1ccc(N(CC(=O)Nc2ccccc2C)S(=O)(=O)c2ccc(C)cc2)c(OC)c1	-10.8
O=C(Nc1cc(Cl)ccc1O)c1cc2nc(C(F)F)cc(C(F)F)n2n1	-0.116
Cc1ccccc1-c1nc(CN2CCC(C(=O)N3CCN(c4ccccn4)CC3)CC2)c(C)o1	-2.85

SMILES	% Inhibition @ 10 uM [%]
CC1CCC(NC(=O)Cn2ncc3c4ccccc4n(Cc4ccccc4)c3c2=O)CC1 (centres unmarked)	-3.35
COc1ccc(Br)cc1CNC(=O)CN1C(=O)CSc2nc(C)cc(C)c21	2.65
O=C(O)c1cnc2ccc(S(=O)(=O)N3CC4CC(C3)c3cccc(=O)n3C4)cc2c1O (centres unmarked)	-3.21
NC(=O)c1c(NC(=O)C2CCCN(C(=O)Cc3ccccc3F)C2)sc2c1CCCC2 (centres unmarked)	5.43
CC(C)C[C@H](NC(=O)N1CCN(c2cccc(Cl)c2)CC1)C(=O)NCC#N	-6.98
COc1cc(C2C3=C(CC(C)(C)CC3=O)OC3=C2C(=O)CC(C)(C)C3)cc(Cl)c1O	-3.72
CCN(CC)CCN1C(=O)C(O)=C(C(=O)c2ccc(F)cc2)C1c1cccc(Br)c1 (centres unmarked)	-1.06
CCc1ccc(CNC(=O)C(C)n2ccc3cc(S(=O)(=O)N4CCCC4)ccc32)cc1 (centres unmarked)	4.81
CCOc1ccc(C(=O)C2=C(O)C(=O)N(CC3CCCO3)C2c2ccc(Br)cc2)cc1 (centres unmarked)	-2.46
O=C(Nc1nc(COc2ccccc2)cs1)c1ccccc1F	-1.65
Oc1cc(-c2ccccc2)nn1-c1nc2ccccc2[nH]1	2.24
COc1ccc(NC(=O)Cc2ccc(OC)c(OC)c2)c(OC)c1	-5.13
Cc1ccc2c(c1)-c1c(cnn1CC(=O)N1C(C)CCCC1C)CO2 (centres unmarked)	-4.71
COc1cc(C2c3c(oc4ccc(Br)cc4c3=O)C(=O)N2Cc2ccccc2)ccc1O (centres unmarked)	6.7
CN1CCN(C(=O)c2ccc3c(c2)C2C4CCC(C4)C2C(c2ccccc2)N3)CC1 (centres unmarked)	0.823
O=C(CCCN1C(=O)c2ccccc2C1=O)NCc1nc(-c2ccc(Cl)cc2)no1	0.486
Cc1ccc(CN2CCN(c3ccc(Cl)cc3)CC2)c(C)c1	-5.41
CC(CCc1ccccc1)NC(=O)c1cc(-c2ccncc2)nc2ccccc12 (centres unmarked)	-4.06
CCCOc1ccc(CNC(=O)c2ccc(CN3CC(=O)N4CCCCC4C3=O)cc2)cc1 (centres unmarked)	1.97
N#Cc1ccc(Oc2cccc(N)c2)cc1Oc1cccc(N)c1	-5.7
Cc1ccsc1/C=C/C(=O)NCC(=O)N1CCC(N(C)C2CCCCC2C)CC1 (centres unmarked)	-0.971

SMILES	% Inhibition @ 10 uM [%]
CC(Oc1ccc(Cl)cc1Cl)C(=O)Nc1cccnc1Cl (centres unmarked)	-0.48
CCN1CCCC1CNc1nc2ccc(Cl)cc2n2cnnc12 (centres unmarked)	5.84
COc1ccc(/C=C/C(=O)OCCN(C)Cc2ccccc2)cc1	-10.8
CC(=O)c1c(C(C)=O)c(C)n(Cc2ccccc2)c1C	3.18
O=C(NCc1cccnc1)C1CC(=O)N(C2CCCCC2)C1 (centres unmarked)	0.302
COc1ccccc1Nc1nc(-c2cccc(N3C(=O)c4ccccc4C3=O)c2)cs1	1.41
c1ccc2c(CNCCc3c[nH]c4ccccc34)cccc2c1	0.673
COc1cccc(Sc2ccccc2CN(C)C)c1	-2.29
COc1ccc(NC(=O)/C(=C\c2ccccc2OC)NC(=O)c2cccc(C)c2)cc1	4.33
O=C(NCC1(c2ccccc2)CCOCC1)C1COc2ccccc2O1 (centres unmarked)	1.84
Cc1ccc2nc(-c3ccc(NC(=O)c4cccnc4)cc3)sc2c1	-0.622
Cc1ccc(NC(=O)COc2ccccc2C)cc1O	-2.74
Fc1ccccc1-c1nnc(CN2CCN(Cc3ccccc3)CC2)o1	-2.78
CCCCN1C(=O)NC(NC(=O)c2ccc(C(C)(C)C)cc2)(C(F)(F)F)C1=O (centres unmarked)	0.221
COc1ccc(CCNc2ncc3c(n2)CC(c2cccs2)CC3=O)cc1 (centres unmarked)	8.44
COc1cc2cc(CO)c(O)nc2cc1OC	2.05
CCCC(=O)Nc1nc2n(n1)C(c1ccc(Cl)cc1)C=C(c1ccccc1)N2 (centres unmarked)	1.62
CCOC(=O)N1CCN(C(=O)CSc2nc3c(c(=O)n2CCc2ccccc2)SCC3)CC1	-2.55
O=C(CCN1C(=O)c2ccccc2C1=O)N1CCc2ccccc2C1	3.04
COc1cc(CNc2ccc(F)c(Cl)c2)cc(OC)c1O	-7.93
